# The other results are listed elsewhere or left out.
# B1: Gal 3 (Homo sapiens), P17931 (protein)
# chain: MADNFSLHDALSGSGNPNPQGWPGAWGNQPAGAGGYPGASYPGAYPGQAPPGAYPGQAPPGAYHGAPGAYPGAPAPGVYPGPPSGPGAYPSSGQPSAPGAYPATGPYGAPAGPLIVPYNLPLPGGVVPRMLITILGTVKPNANILDFQRGNDVAFHFNPRFNENNRRVIVCNTKLDNNWGREESQSVFPFESGKPFKIQVLVEPDHFKVAVNDAHLLQYNHRVKKLNEISKLGISGDIDLTSASYTMI
# Experiments:
# Test in all cases: glycan array binding signal (z-score within array); higher = stronger binding
# Settings in all cases: glycan notation: IUPAC condensed, linker removed; mutation: R186S
# GlcNAc(b1-4)GlcNAc = target: GlcNAc(b1-4)GlcNAc
# Method in brief: (§1)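 From the Consortium for Functional Glycomics database, 3228 arrays were curated, keeping only those whose protein sequence was available. Binding is given as a within-array Z-score averaged across arrays sharing a protein sequence and across linkers. Negative Z-scores can be read as non-binding.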
# [1] = target: GlcNAc(b1-4)GlcNAc(b1-4)GlcNAc
# Method in brief: as §1
# [2] = target: GlcNAc(b1-4)GlcNAc(b1-4)GlcNAc(b1-4)GlcNAc(b1-4)GlcNAc
# Method in brief: as §1
# [3] = target: GlcNAc(b1-4)GlcNAc(b1-4)GlcNAc(b1-4)GlcNAc(b1-4)GlcNAc(b1-4)GlcNAc
# Method in brief: as §1
# [4] = target: GlcNAc(b1-4)[GlcNAc(b1-6)]GalNAc
# Method in brief: as §1
# [5] = target: GlcNAc(b1-6)Gal(b1-4)GlcNAc
# Method in brief: as §1
# GlcNAc(b1-6)GalNAc = target: GlcNAc(b1-6)GalNAc
# Method in brief: as §1
# GlcNAc3Prop(b1-4)GlcNAc = target: GlcNAc3Prop(b1-4)GlcNAc
# Method in brief: as §1
# [6] = target: GlcNAc6S(b1-3)Gal(b1-4)GlcNAc
# Method in brief: as §1
# Kdn(a2-3)Gal(b1-3)GalNAc = target: Kdn(a2-3)Gal(b1-3)GalNAc
# Method in brief: as §1
# Kdn(a2-3)Gal(b1-3)GlcNAc = target: Kdn(a2-3)Gal(b1-3)GlcNAc
# Method in brief: as §1
# Kdn(a2-3)Gal(b1-4)Glc = target: Kdn(a2-3)Gal(b1-4)Glc
# Method in brief: as §1
# Kdn(a2-3)Gal(b1-4)GlcNAc = target: Kdn(a2-3)Gal(b1-4)GlcNAc
# Method in brief: as §1
# [7] = target: Kdn(a2-3)Gal(b1-4)[Fuc(a1-3)]GlcNAc
# Method in brief: as §1
# Kdn(a2-6)Gal(b1-4)GlcNAc = target: Kdn(a2-6)Gal(b1-4)GlcNAc
# Method in brief: as §1
# [8] = target: Man(a1-2)Man(a1-2)Man(a1-3)Man
# Method in brief: as §1
# [9] = target: Man(a1-2)Man(a1-2)Man(a1-6)[Man(a1-3)]Man
# Method in brief: as §1
# Man(a1-2)Man(a1-3)Man = target: Man(a1-2)Man(a1-3)Man
# Method in brief: as §1
# [10] = target: Man(a1-2)Man(a1-3)[Man(a1-2)Man(a1-6)]Man
# Method in brief: as §1
# [11] = target: Man(a1-2)Man(a1-3)[Man(a1-2)Man(a1-6)]Man(a1-6)[Man(a1-2)Man(a1-2)Man(a1-3)]Man
# Method in brief: as §1
# [12] = target: Man(a1-2)Man(a1-3)[Man(a1-2)Man(a1-6)]Man(a1-6)[Man(a1-2)Man(a1-2)Man(a1-3)]Man(b1-4)GlcNAc(b1-4)GlcNAc
# Method in brief: as §1
# [13] = target: Man(a1-2)Man(a1-3)[Man(a1-6)]Man(a1-6)[Man(a1-2)Man(a1-3)]Man(b1-4)GlcNAc(b1-4)GlcNAc
# Method in brief: as §1
# [14] = target: Man(a1-2)Man(a1-6)[Man(a1-3)]Man(a1-6)[Man(a1-2)Man(a1-2)Man(a1-3)]Man
# Method in brief: as §1
# [15] = target: Man(a1-2)Man(a1-6)[Man(a1-3)]Man(a1-6)[Man(a1-2)Man(a1-2)Man(a1-3)]Man(b1-4)GlcNAc(b1-4)GlcNAc
# Method in brief: as §1
# Man(a1-3)[Man(a1-6)]Man = target: Man(a1-3)[Man(a1-6)]Man
# Method in brief: as §1
# [16] = target: Man(a1-3)[Man(a1-6)]Man(a1-6)[Man(a1-2)Man(a1-3)]Man(b1-4)GlcNAc(b1-4)GlcNAc
# Method in brief: as §1
# [17] = target: Man(a1-3)[Man(a1-6)]Man(a1-6)[Man(a1-3)]Man
# Method in brief: as §1
# [18] = target: Man(a1-3)[Man(a1-6)]Man(a1-6)[Man(a1-3)]Man(b1-4)GlcNAc(b1-4)GlcNAc
# Method in brief: as §1
# [19] = target: Man(a1-3)[Man(a1-6)]Man(b1-4)GlcNAc(b1-4)GlcNAc
# Method in brief: as §1
# Man(a1-6)Man = target: Man(a1-6)Man
# Method in brief: as §1
# Man(b1-4)GlcNAc = target: Man(b1-4)GlcNAc
# Method in brief: as §1
# Neu5Ac(a2-3)Gal = target: Neu5Ac(a2-3)Gal
# Method in brief: as §1
# [20] = target: Neu5Ac(a2-3)Gal(b1-3)GalNAc
# Method in brief: as §1
# [21] = target: Neu5Ac(a2-3)Gal(b1-3)GalNAc(b1-3)Gal(a1-4)Gal(b1-4)Glc
# Method in brief: as §1
# [22] = target: Neu5Ac(a2-3)Gal(b1-3)GalNAc(b1-4)[Neu5Ac(a2-3)]Gal(b1-4)Glc
# Method in brief: as §1
# [23] = target: Neu5Ac(a2-3)Gal(b1-3)GalNAc6S
# Method in brief: as §1
# [24] = target: Neu5Ac(a2-3)Gal(b1-3)GlcNAc
# Method in brief: as §1
# [25] = target: Neu5Ac(a2-3)Gal(b1-3)GlcNAc(b1-2)Man(a1-3)[Neu5Ac(a2-3)Gal(b1-3)GlcNAc(b1-2)Man(a1-6)]Man(b1-4)GlcNAc(b1-4)GlcNAc
# Method in brief: as §1
binder,measurement,setting,value
B1,glycan array binding signal (z-score),GlcNAc(b1-4)GlcNAc,-0.09
same,glycan array binding signal (z-score),[1],-0.058
same,glycan array binding signal (z-score),[2],-0.092
same,glycan array binding signal (z-score),[3],-0.063
same,glycan array binding signal (z-score),[4],-0.089
same,glycan array binding signal (z-score),[5],-0.076
same,glycan array binding signal (z-score),GlcNAc(b1-6)GalNAc,-0.058
same,glycan array binding signal (z-score),GlcNAc3Prop(b1-4)GlcNAc,-0.07
same,glycan array binding signal (z-score),[6],-0.024
same,glycan array binding signal (z-score),Kdn(a2-3)Gal(b1-3)GalNAc,-0.067
same,glycan array binding signal (z-score),Kdn(a2-3)Gal(b1-3)GlcNAc,-0.07
same,glycan array binding signal (z-score),Kdn(a2-3)Gal(b1-4)Glc,-0.004
same,glycan array binding signal (z-score),Kdn(a2-3)Gal(b1-4)GlcNAc,-0.081
same,glycan array binding signal (z-score),[7],-0.008
same,glycan array binding signal (z-score),Kdn(a2-6)Gal(b1-4)GlcNAc,-0.071
same,glycan array binding signal (z-score),[8],-0.067
same,glycan array binding signal (z-score),[9],-0.058
same,glycan array binding signal (z-score),Man(a1-2)Man(a1-3)Man,-0.024
same,glycan array binding signal (z-score),[10],-0.05
same,glycan array binding signal (z-score),[11],-0.058
same,glycan array binding signal (z-score),[12],-0.078
same,glycan array binding signal (z-score),[13],-0.1
same,glycan array binding signal (z-score),[14],-0.069
same,glycan array binding signal (z-score),[15],-0.034
same,glycan array binding signal (z-score),Man(a1-3)[Man(a1-6)]Man,-0.071
same,glycan array binding signal (z-score),[16],-0.063
same,glycan array binding signal (z-score),[17],-0.062
same,glycan array binding signal (z-score),[18],-0.04
same,glycan array binding signal (z-score),[19],-0.039
same,glycan array binding signal (z-score),Man(a1-6)Man,-0.04
same,glycan array binding signal (z-score),Man(b1-4)GlcNAc,-0.058
same,glycan array binding signal (z-score),Neu5Ac(a2-3)Gal,-0.061
same,glycan array binding signal (z-score),[20],-0.069
same,glycan array binding signal (z-score),[21],0.003
same,glycan array binding signal (z-score),[22],-0.089
same,glycan array binding signal (z-score),[23],-0.065
same,glycan array binding signal (z-score),[24],-0.051
same,glycan array binding signal (z-score),[25],-0.094

# Reference: the supplement of paper PMC8728848
